The list shows a part of the results.
How the values were obtained:
Experiment in all cases: glycan array binding signal (z-score within array); higher = stronger binding
Settings in all cases: glycan notation: IUPAC condensed, linker removed; mutation: D325N
[1] = biological target: Neu5Ac(a2-3)Gal(b1-4)[Fuc(a1-3)]GlcNAc
How it was run: (§1)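 Glycan array data came from 3228 arrays in the Consortium for Functional Glycomics database, and only arrays with an available protein sequence were kept. Glycan names were put into IUPAC-condensed notation, and columns mapping to the same glycan were averaged. The binding signal is a within-array Z-score, averaged across arrays of one protein sequence run at different concentrations or buffers and across linkers. A negative Z-score can be read as non-binding.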

[2] = biological target: Neu5Ac(a2-3)Gal(b1-4)[Fuc(a1-3)]GlcNAc(b1-3)Gal
How it was run: as §1

[3] = biological target: Neu5Ac(a2-3)Gal(b1-4)[Fuc(a1-3)]GlcNAc(b1-3)Gal(b1-4)GlcNAc
How it was run: as §1

[4] = biological target: Neu5Ac(a2-3)Gal(b1-4)[Fuc(a1-3)]GlcNAc(b1-3)Gal(b1-4)[Fuc(a1-3)]GlcNAc(b1-3)Gal(b1-4)[Fuc(a1-3)]GlcNAc
How it was run: as §1

[5] = biological target: Neu5Ac(a2-3)Gal(b1-4)[Fuc(a1-3)]GlcNAc(b1-6)[Gal(b1-3)]GalNAc
How it was run: as §1

[6] = biological target: Neu5Ac(a2-3)Gal(b1-4)[Fuc(a1-3)]GlcNAc6S
How it was run: as §1

[7] = biological target: Neu5Ac(a2-3)Gal6S(b1-4)GlcNAc
How it was run: as §1

[8] = biological target: Neu5Ac(a2-3)Gal6S(b1-4)[Fuc(a1-3)]GlcNAc
How it was run: as §1

Neu5Ac(a2-3)GalNAc = biological target: Neu5Ac(a2-3)GalNAc
How it was run: as §1

[9] = biological target: Neu5Ac(a2-3)GalNAc(b1-4)GlcNAc
How it was run: as §1

[10] = biological target: Neu5Ac(a2-3)[GalNAc(b1-4)]Gal(b1-4)Glc
How it was run: as §1

[11] = biological target: Neu5Ac(a2-3)[GalNAc(b1-4)]Gal(b1-4)GlcNAc
How it was run: as §1

[12] = biological target: Neu5Ac(a2-3)[Neu5Ac(a2-6)]GalNAc
How it was run: as §1

Neu5Ac(a2-6)Gal = biological target: Neu5Ac(a2-6)Gal
How it was run: as §1

Neu5Ac(a2-6)Gal(b1-4)Glc = biological target: Neu5Ac(a2-6)Gal(b1-4)Glc
How it was run: as §1

[13] = biological target: Neu5Ac(a2-6)Gal(b1-4)GlcNAc
How it was run: as §1

[14] = biological target: Neu5Ac(a2-6)Gal(b1-4)GlcNAc(b1-2)Man(a1-3)[Gal(b1-4)GlcNAc(b1-2)Man(a1-6)]Man(b1-4)GlcNAc(b1-4)GlcNAc
How it was run: as §1

[15] = biological target: Neu5Ac(a2-6)Gal(b1-4)GlcNAc(b1-2)Man(a1-3)[GlcNAc(b1-2)Man(a1-6)]Man(b1-4)GlcNAc(b1-4)GlcNAc
How it was run: as §1

[16] = biological target: Neu5Ac(a2-6)Gal(b1-4)GlcNAc(b1-2)Man(a1-3)[GlcNAc(b1-2)Man(b1-4)GlcNAc(b1-2)Man(a1-6)]Man(b1-4)GlcNAc(b1-4)GlcNAc
How it was run: as §1

[17] = biological target: Neu5Ac(a2-6)Gal(b1-4)GlcNAc(b1-2)Man(a1-3)[Neu5Ac(a2-6)Gal(b1-4)GlcNAc(b1-2)Man(a1-6)]Man(b1-4)GlcNAc(b1-4)GlcNAc
How it was run: as §1

[18] = biological target: Neu5Ac(a2-6)Gal(b1-4)GlcNAc(b1-2)Man(a1-6)[Gal(b1-4)GlcNAc(b1-2)Man(a1-3)]Man(b1-4)GlcNAc(b1-4)GlcNAc
How it was run: as §1

[19] = biological target: Neu5Ac(a2-6)Gal(b1-4)GlcNAc(b1-2)Man(a1-6)[GlcNAc(b1-2)Man(a1-3)]Man(b1-4)GlcNAc(b1-4)GlcNAc
How it was run: as §1

[20] = biological target: Neu5Ac(a2-6)Gal(b1-4)GlcNAc(b1-3)Gal(b1-4)GlcNAc
How it was run: as §1

[21] = biological target: Neu5Ac(a2-6)Gal(b1-4)GlcNAc(b1-3)Gal(b1-4)[Fuc(a1-3)]GlcNAc(b1-3)Gal(b1-4)[Fuc(a1-3)]GlcNAc
How it was run: as §1

[22] = biological target: Neu5Ac(a2-6)Gal(b1-4)GlcNAc6S
How it was run: as §1

Neu5Ac(a2-6)GalNAc = biological target: Neu5Ac(a2-6)GalNAc
How it was run: as §1

[23] = biological target: Neu5Ac(a2-6)GalNAc(b1-4)GlcNAc
How it was run: as §1

Neu5Ac(a2-8)Neu5Ac = biological target: Neu5Ac(a2-8)Neu5Ac
How it was run: as §1

[24] = biological target: Neu5Ac(a2-8)Neu5Ac(a2-3)Gal(b1-4)Glc
How it was run: as §1

[25] = biological target: Neu5Ac(a2-8)Neu5Ac(a2-3)[GalNAc(b1-4)]Gal(b1-4)Glc
How it was run: as §1

[26] = biological target: Neu5Ac(a2-8)Neu5Ac(a2-8)Neu5Ac
How it was run: as §1

[27] = biological target: Neu5Ac(a2-8)Neu5Ac(a2-8)Neu5Ac(a2-3)Gal(b1-4)Glc
How it was run: as §1

[28] = biological target: Neu5Ac(a2-8)Neu5Ac(a2-8)Neu5Ac(a2-3)[GalNAc(b1-4)]Gal(b1-4)Glc
How it was run: as §1

[29] = biological target: Neu5Ac(a2-8)Neu5Ac(a2-8)Neu5Ac(a2-8)Neu5Ac(a2-3)[GalNAc(b1-4)]Gal(b1-4)Glc
How it was run: as §1

[30] = biological target: Neu5Ac(b2-6)Gal(b1-4)GlcNAc
How it was run: as §1

Neu5Ac(b2-6)GalNAc = biological target: Neu5Ac(b2-6)GalNAc
How it was run: as §1

[31] = biological target: Neu5Ac9Ac(a2-6)Gal(b1-4)GlcNAc
How it was run: as §1

[32] = biological target: Neu5Gc(a2-3)Gal(b1-3)GlcNAc
How it was run: as §1

[33] = biological target: Neu5Gc(a2-3)Gal(b1-3)[Fuc(a1-4)]GlcNAc
How it was run: as §1

Neu5Gc(a2-3)Gal(b1-4)Glc = biological target: Neu5Gc(a2-3)Gal(b1-4)Glc
How it was run: as §1

[34] = biological target: Neu5Gc(a2-3)Gal(b1-4)GlcNAc
How it was run: as §1

[35] = biological target: Neu5Gc(a2-3)Gal(b1-4)[Fuc(a1-3)]GlcNAc
How it was run: as §1

[36] = biological target: Neu5Gc(a2-6)Gal(b1-4)GlcNAc
How it was run: as §1

Neu5Gc(a2-6)GalNAc = biological target: Neu5Gc(a2-6)GalNAc
How it was run: as §1

[37] = biological target: Neu5Gc(b2-6)Gal(b1-4)GlcNAc
How it was run: as §1

B1: Surfactant Protein D (Human); Neck + Carbohydrate Recognition Domain (NCRD) (Homo sapiens) (protein)
chain: MLLFLLSALVLLTQPLGYLEAEMKTYSHRTMPSACTLVMCSSVESGLPGRDRDGREGPRGEKGDPGLPGAAGQAGMPGQAGPVGPKGDNGSVGEPGPKGDTGPSGPPGPPGVPGPAGREGALGKQGNIGPQGKPGPKGEAGPKGEVGAPGMQGSAGARGLAGPKGERGVPGERGVPGNTGAAGSAGAMGPQGSPGARGPPGLKGDKGIPGDKGAKGESGLPDVASLRQQVEALQGQVQHLQAAFSQYKKVELFPNGQSVGEKIFKTAQFVKPFTEAQLLCTQAGGQLASPRSAAENAALQQLVVAKNEAAFLSMTDSKTEGKFTYPTGESLVYSNWAPGEPNDNGGSEDCVEIFTNGKWNDRACGEKRLVVCEF
glycan array binding signal (z-score) [1]: -0.125 | glycan array binding signal (z-score) [2]: -0.132 | glycan array binding signal (z-score) [3]: -0.114 | glycan array binding signal (z-score) [4]: -0.125 | glycan array binding signal (z-score) [5]: -0.073 | glycan array binding signal (z-score) [6]: -0.141 | glycan array binding signal (z-score) [7]: -0.153 | glycan array binding signal (z-score) [8]: -0.136 | glycan array binding signal (z-score) (Neu5Ac(a2-3)GalNAc): -0.146 | glycan array binding signal (z-score) [9]: -0.148 | glycan array binding signal (z-score) [10]: -0.132 | glycan array binding signal (z-score) [11]: -0.12 | glycan array binding signal (z-score) [12]: -0.158 | glycan array binding signal (z-score) (Neu5Ac(a2-6)Gal): -0.148 | glycan array binding signal (z-score) (Neu5Ac(a2-6)Gal(b1-4)Glc): -0.153 | glycan array binding signal (z-score) [13]: -0.153 | glycan array binding signal (z-score) [14]: -0.117 | glycan array binding signal (z-score) [15]: -0.153 | glycan array binding signal (z-score) [16]: -0.137 | glycan array binding signal (z-score) [17]: -0.118 | glycan array binding signal (z-score) [18]: -0.128 | glycan array binding signal (z-score) [19]: -0.134 | glycan array binding signal (z-score) [20]: -0.14 | glycan array binding signal (z-score) [21]: -0.14 | glycan array binding signal (z-score) [22]: -0.137 | glycan array binding signal (z-score) (Neu5Ac(a2-6)GalNAc): -0.129 | glycan array binding signal (z-score) [23]: -0.145 | glycan array binding signal (z-score) (Neu5Ac(a2-8)Neu5Ac): -0.128 | glycan array binding signal (z-score) [24]: -0.108 | glycan array binding signal (z-score) [25]: -0.129 | glycan array binding signal (z-score) [26]: -0.163 | glycan array binding signal (z-score) [27]: -0.148 | glycan array binding signal (z-score) [28]: -0.138 | glycan array binding signal (z-score) [29]: -0.13 | glycan array binding signal (z-score) [30]: -0.14 | glycan array binding signal (z-score) (Neu5Ac(b2-6)GalNAc): -0.126 | glycan array binding signal (z-score) [31]: -0.14 | glycan array binding signal (z-score) [32]: -0.138 | glycan array binding signal (z-score) [33]: -0.144 | glycan array binding signal (z-score) (Neu5Gc(a2-3)Gal(b1-4)Glc): -0.138 | glycan array binding signal (z-score) [34]: -0.134 | glycan array binding signal (z-score) [35]: -0.124 | glycan array binding signal (z-score) [36]: -0.125 | glycan array binding signal (z-score) (Neu5Gc(a2-6)GalNAc): -0.153 | glycan array binding signal (z-score) [37]: -0.017
